In all, about 150,000 compounds went through this assay and about 540 (0.36%) showed an effect of 50% or more. This is one part of the list.

This experiment relates to Plasmodium falciparum. Kind of experiment: Primary screen in NF54 nanoGlo assay, in single point, at 2uM, 72h; a lower Z score goes with more inhibition. To be noted: timepoint 72 hour. The experiment is classed as functional, Erythrocyte.
Take `Cn1cnnc1-c1ccnc(NCc2cnc(NC(=O)OC(C)(C)C)s2)c1`: the “% Inhibition” value is given as -10% and the Z score is listed as 1.48.

Take `Cc1nc(CNC(=O)c2cccc(CO)c2)sc1C`: the “% Inhibition” value was -7% and the Z score was 1.12.

`CC1CCN(C(=O)Nc2cc(N(C)C)ncn2)CC(C)C1` (stereo unspecified): the “% Inhibition” value is given as -15% and the Z score is listed as 2.95.

On to `C[C@H]1CN(C(=O)c2cccc(-c3cn(C)nc3-c3ccccc3)c2)CCN1`, for which the “% Inhibition” value is -10% and the Z score amounted to 1.74.

On to `Cc1cc(N)nc(NCCc2ccc(Cl)cc2)n1`, for which the “% Inhibition” value worked out at 18% and the Z score is listed as -3.51.

On to `COc1ccc2c(C)cc(Nc3cc(C)c(Cl)cc3OC)nc2c1`, for which the “% Inhibition” value is listed as -8% and the Z score stood at 1.6.

Regarding `O=C(c1ccc2[nH]cnc2c1)N1CCN(c2nc(-c3cccnc3)nc3ccccc23)CC1`, the “% Inhibition” value is 20% and the Z score is listed as -3.48.

As for `O=C1CCCNC(=O)c2cccc(c2)-c2cccc(c2)COC2CNCC2N1` (stereo unspecified), the “% Inhibition” value is given as -8% and the Z score is reported as 1.37.

Take `Cc1cc(NCc2cc(O[C@H]3CCNC3)ccn2)c(C#N)cn1`: the “% Inhibition” value is recorded as -2% and the Z score amounted to 0.27.

As for `O=C(c1ccc(NCCN2CCN(c3cccc(C(F)(F)F)c3)CC2)nc1)N1CCCC1`, the “% Inhibition” value is -9% and the Z score stood at 1.37.

Turning to `Fc1cnc(N[C@H]2CCCN(Cc3cccs3)C2)nc1N1CCOCC1`, the “% Inhibition” value worked out at 11% and the Z score is given as -2.47.

As for `CN1CCC(CNC2CC3CC(C2)N(C(=O)OC(C)(C)C)C3)CC1` (stereo unspecified), the “% Inhibition” value turned out to be 72% and the Z score is listed as -15.46.

Consider `O=S1(=O)CCCN1c1cccc(CNc2ncnc3cc(F)c(F)cc23)c1`, for which the “% Inhibition” value is listed as -7% and the Z score was determined as 1.31.

Take `OC[C@H]1CNCCC12CCN(CCN1CCCCC1)CC2`: the “% Inhibition” value was 8% and the Z score is -1.36.

For the compound `Nc1ncc(-c2c(-c3ccccc3)ncn2Cc2nc3c(s2)CCCC3)cn1`, the “% Inhibition” value was -2% and the Z score is recorded as 0.28.

In the case of `C[C@H]1CN(CCO)CCN1C(=O)c1cccc2ncccc12`, the “% Inhibition” value is listed as -3% and the Z score is reported as 0.65.

Turning to `OC[C@H]1CCCN(c2cc(NCc3ccc(-n4ccnc4)c(F)c3)ncn2)C1`, the “% Inhibition” value amounted to 9% and the Z score is -1.64.

`Cc1ccc2[nH]c(C(=O)NC[C@@H]3C[C@H](F)CN3c3ccnc(N(C)C)n3)cc2c1`: the “% Inhibition” value worked out at 4% and the Z score is recorded as -0.82.

For `CC(C)N1CCN(c2ccc(C(=O)Nc3cncnc3N3CCCC3)cc2)CC1`, the “% Inhibition” value is listed as 3% and the Z score is recorded as -0.56.

As for `Cc1onc(OC(F)F)c1NC(=O)[C@@H]1CCc2ccc(F)cc2O1`, the “% Inhibition” value worked out at 1% and the Z score is given as -0.24.

Regarding `Nc1ccc2nc(NCCc3ccc(F)cc3)oc2c1`, the “% Inhibition” value is on record as -9% and the Z score was 1.86.

In the case of `COCC(CCCNC(=O)OC(C)(C)C)NC1CCN(c2ccc(C(F)(F)F)cc2)C1` (stereo unspecified), the “% Inhibition” value is given as -9% and the Z score stood at 1.88.

As for `CN(C)C(=O)NCC(=O)N1CC(O)C(Cc2ccc3ccccc3n2)C1` (stereo unspecified), the “% Inhibition” value is recorded as -4% and the Z score was found to be 0.75.

As to `NC(CN1CCOCC1)=NOCc1cc2ccccc2s1`, the “% Inhibition” value is on record as -1% and the Z score stood at 0.28.

Consider `COc1cccc(-c2cc(=O)n3nc(C)c(-c4ccccc4)c3[nH]2)c1`, for which the “% Inhibition” value is 0% and the Z score is -0.07.

Turning to `CCCn1c(=O)cc(Nc2cccc(F)c2)c2ccccc21`, the “% Inhibition” value is reported as -18% and the Z score is reported as 2.66.

For the compound `CN1CCN(C2CCN(C(=O)c3nc4cc(F)ccc4[nH]3)CC2CCCO)CC1` (stereo unspecified), the “% Inhibition” value is -1% and the Z score came out at 0.12.

Regarding `c1nc(NCC2CC2)cc(NC2CCN(C[C@H]3CCOC3)CC2)n1`, the “% Inhibition” value worked out at 8% and the Z score is -1.34.

Take `c1cc(CN2CCCN(C3CCCCC3)CC2)c2[nH]ccc2c1`: the “% Inhibition” value is listed as -8% and the Z score is 1.37.

`COC(OC)c1ccc(F)c(CNC2CCC3(CC2)OCCO3)c1`: the “% Inhibition” value is on record as -5% and the Z score came to 0.82.

With `Cc1oc(-c2cccc(NC(=O)CCc3cccnc3)c2)nc1CNC(=O)c1cc2cc(F)ccc2[nH]1`, the “% Inhibition” value is given as -11% and the Z score was found to be 1.9.

`CCN1CCC[C@H](CN(C)C(=O)c2cccc(-c3cc(O)nc(N)n3)c2)C1`: the “% Inhibition” value is on record as 1% and the Z score is reported as -0.17.

Regarding `CC1CCC(C)N1CCN1CCN(C(=O)C2COCCN2)CC1` (stereo unspecified), the “% Inhibition” value is recorded as -2% and the Z score amounted to 0.32.

Consider `O=C(C1CCC1)N(CCN1CCCC1)[C@H]1CCCN(Cc2ccc3cc[nH]c3c2)C1`, for which the “% Inhibition” value is given as 10% and the Z score is recorded as -1.81.

As for `O=C(NC1(c2ccc3c(c2)OCCO3)CC1)c1cnn2c1CCC2`, the “% Inhibition” value turned out to be 1% and the Z score was -0.17.

For `COC(=O)c1ccc(NCc2nnc(-c3ccccc3)n2C)cc1F`, the “% Inhibition” value was -15% and the Z score came to 2.32.

For the compound `Cc1ccc2nc(NC[C@H]3CCN(C4CC4)C3)cc(C)c2c1`, the “% Inhibition” value was found to be 55% and the Z score is -8.34.

For the compound `Cc1cc(O)c2cc(-c3cccc(C(=O)N[C@H]4CCC(=O)N(C)C4)c3)ccc2n1`, the “% Inhibition” value came out at 3% and the Z score is on record as -0.48.

Regarding `COCCN1CCN(C(=O)c2cccc(-c3cnn4cccnc34)c2)CC1`, the “% Inhibition” value is recorded as -6% and the Z score was determined as 1.04.

As to `CCN1CCN(c2ccc(CNc3ncnc4[nH]ncc34)cn2)CC1`, the “% Inhibition” value is given as -3% and the Z score is reported as 0.71.

For `CN(c1ccc(-c2ccncc2)cn1)[C@H]1CCCN(c2cccnn2)C1`, the “% Inhibition” value is reported as -8% and the Z score is 1.46.

In the case of `O=C(C[C@H]1COCCN1)NC1CCN(Cc2ccc(-c3ccccc3)cc2)CC1`, the “% Inhibition” value is reported as 3% and the Z score was -0.5.

With `O=C(NCc1ccc(CN2CCCC2)cc1)c1cc(-c2ccccc2)[nH]n1`, the “% Inhibition” value is reported as -7% and the Z score came to 1.07.

Turning to `FC(F)(F)c1ccc(N2CCC[C@H](NC3CCN(Cc4ccco4)CC3)C2)nc1`, the “% Inhibition” value is 25% and the Z score is recorded as -4.29.

Take `C[C@@H](C(=O)NC1CCCC1)N1CCC(c2nc(-c3ccncc3)cs2)CC1`: the “% Inhibition” value is on record as -2% and the Z score is listed as 0.46.

`CCCN1CCC(Nc2nccc(OCc3ccccc3)n2)CC1`: the “% Inhibition” value is recorded as -5% and the Z score worked out at 0.87.

With `Cc1ccc([C@@H]2CS(=O)(=O)CCN2C(=O)c2cccnc2)o1`, the “% Inhibition” value was -6% and the Z score came out at 0.96.

As to `CCC[C@@H](CC(=O)O)NC(=O)N(C)Cc1cc(-c2ccccc2)[nH]n1`, the “% Inhibition” value came to 3% and the Z score was -0.59.

For `CC(C)Oc1ccc(Cc2noc(C3CCN(C4CC4)CC3)n2)cc1`, the “% Inhibition” value was -2% and the Z score is recorded as 0.24.

With `CN(C)c1ncc(CN2CCC[C@H](CCC(=O)Nc3ccccc3F)C2)s1`, the “% Inhibition” value is on record as -1% and the Z score is reported as 0.1.

For the compound `O=C(c1cccc(NC2CCCN(Cc3ccccc3)C2)c1)N1CCCCC1CCO` (stereo unspecified), the “% Inhibition” value is -9% and the Z score came to 1.95.

In the case of `NC(=O)C1CCN(CCCNc2ncnc3ccccc23)CC1`, the “% Inhibition” value was determined as 14% and the Z score was -2.8.

In the case of `CC(C)S(=O)(=O)c1ccc(CC(=O)NCc2nc(N(C)C)nc(N3CCCC3)n2)cc1`, the “% Inhibition” value was -10% and the Z score is 1.77.

Broadly, the % Inhibition is the drop in the measured response relative to a control, in per cent.

Source of the values: ChEMBL document CHEMBL5308541, “MAIP: An Open-Source Tool to Enrich High-Throughput Screening Output and Identify Novel, Druglike Molecules with Antimalarial Activity” (ACS Med Chem Lett, 2023).
